Molecules are shown by their SMILES. Hit rate of the full screen: of about 310,000 compounds, about 2,200 (0.71%) showed an effect of 50% or more. Effects have a minus sign here. The list shows a part of the results.

The test deals with human ether-à-go-go-related gene (hERG) potassium channel (human, UniProt Q12809). Nature of the test: primary screen, population patch clamp on CHO cells stably expressing hERG.
human ether-à-go-go-related gene (hERG) potassium channel, sequence (Q12809 whole entry, looked up): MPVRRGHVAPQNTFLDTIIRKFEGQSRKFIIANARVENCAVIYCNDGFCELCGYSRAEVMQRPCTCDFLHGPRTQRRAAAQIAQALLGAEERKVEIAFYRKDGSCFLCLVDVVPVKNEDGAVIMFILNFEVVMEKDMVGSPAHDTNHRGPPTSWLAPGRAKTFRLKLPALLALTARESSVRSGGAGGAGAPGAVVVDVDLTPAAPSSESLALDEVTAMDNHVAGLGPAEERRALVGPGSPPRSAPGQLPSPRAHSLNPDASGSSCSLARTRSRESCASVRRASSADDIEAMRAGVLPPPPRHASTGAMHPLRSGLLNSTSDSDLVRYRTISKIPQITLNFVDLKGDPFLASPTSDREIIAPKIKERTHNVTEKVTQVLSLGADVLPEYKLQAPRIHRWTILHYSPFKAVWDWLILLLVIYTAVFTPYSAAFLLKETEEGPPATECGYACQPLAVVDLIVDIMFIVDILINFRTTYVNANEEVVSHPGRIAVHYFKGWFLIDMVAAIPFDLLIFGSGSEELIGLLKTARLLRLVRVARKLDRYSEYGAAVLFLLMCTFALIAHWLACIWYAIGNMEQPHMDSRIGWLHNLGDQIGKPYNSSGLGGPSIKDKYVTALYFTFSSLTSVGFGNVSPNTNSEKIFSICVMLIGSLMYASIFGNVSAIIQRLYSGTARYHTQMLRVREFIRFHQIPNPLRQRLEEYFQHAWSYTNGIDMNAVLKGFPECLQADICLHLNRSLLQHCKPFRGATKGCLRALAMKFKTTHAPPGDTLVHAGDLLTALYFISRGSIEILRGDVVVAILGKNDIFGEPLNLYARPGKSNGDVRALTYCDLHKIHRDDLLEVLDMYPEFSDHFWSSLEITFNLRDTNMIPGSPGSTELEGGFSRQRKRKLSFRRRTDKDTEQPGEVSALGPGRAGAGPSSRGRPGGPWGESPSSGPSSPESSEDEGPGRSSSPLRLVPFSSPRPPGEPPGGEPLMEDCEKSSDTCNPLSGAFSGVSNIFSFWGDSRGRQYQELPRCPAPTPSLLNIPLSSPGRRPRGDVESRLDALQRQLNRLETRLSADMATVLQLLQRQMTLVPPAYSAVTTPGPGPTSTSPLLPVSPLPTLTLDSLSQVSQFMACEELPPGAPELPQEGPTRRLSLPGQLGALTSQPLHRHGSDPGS
Turning to `CCNS(=O)(=O)c1ccc(NC(=O)c2c(-c3ccccc3)noc2C)cc1`, the “hERG current change (%, negative = inhibition) at 1uM” value stood at 10.6%.
As for `COc1ccc(CC(=O)N2CCN(S(=O)(=O)c3cc(Cl)ccc3Cl)CC2)cc1`, the figure is 14%; as for `COc1ccc(C2CC(=O)C(CS(=O)(=O)c3ccccc3)C(=O)C2)cc1` (centres unmarked), 17.8%.
As for `CCCCCCc1ccc(N2C[C@H](Cc3ccccc3)[C@@H](CC(=O)Nc3ccccc3)C2=O)cc1`, the figure is 8.9%; as for `O=C(c1cccn2c(=O)c3cc(Br)ccc3nc12)N1CCN(c2ccccn2)CC1`, -2.68%; as for `Cc1ccccc1-c1cc(C(=O)NCc2ccco2)n(CC2CC(c3cccnc3)=NO2)n1` (centres unmarked), -2.01%.
With `COc1ccc(C(=O)C2CCCN(C(=O)c3cccnc3SC)C2)c(C)c1` (centres unmarked) the figure was 16.7%; with `Cc1cccc(NC(=O)CN2C(=O)N/C(=C\c3ccc(N4CCOCC4)cc3)C2=O)c1`, 7.34%.
`Cc1ccc(NC(=O)CN(C)C(C)C(=O)Nc2ccc(S(=O)(=O)N3CCCC3)cc2)cc1` (centres unmarked): the “hERG current change (%, negative = inhibition) at 1uM” value came out at 7.44%.
With `CN(C)/C=C(/C(=O)c1ccc(Cl)cc1)S(C)(=O)=O` the figure was 14.4%; with `CC(C)CC(CO)N1CCN(C(=O)c2cccc(Cl)c2)CCC1=O` (centres unmarked), 7.06%; with `Brc1ccc(-c2csc(/N=C/N3CCOCC3)n2)cc1`, -8.54%.
With `CCc1ccc(NC(=O)CSc2nnnn2-c2cccnc2)cc1` the figure was 0.79%.
As for `CCOC(=O)N1CCN(c2ccc(S(=O)(=O)N3CCOCC3)cc2[N+](=O)[O-])CC1`, the figure is 2.97%; as for `COc1ccc(CN(C(=O)CNC(=O)c2ccco2)C(C(=O)NC2CCCC2)c2ccco2)cc1` (centres unmarked), 2.21%; as for `O=[N+]([O-])c1ccccc1Oc1cnc2ccccc2n1`, -5.01%.
As to `c1ccc(CN2CCN(Cc3ccc4ccccc4c3)CC2)cc1`, the “hERG current change (%, negative = inhibition) at 1uM” value stood at 15.9%.
With `CNCCOc1ccccc1-c1ccccc1.O=C(O)C(=O)O` the figure was 3.21%; with `Nc1ncc2c(n1)-c1cc(Cl)ccc1SC2`, -11.7%.
As for `N#Cc1cc(N2CCCCC2)c([N+](=O)[O-])cc1C#N`, the figure is 15.3%; as for `CC1CCCCN1C(=O)Cn1c(=O)n(-c2ccc(F)cc2)c(=O)c2sccc21` (centres unmarked), 1.88%.
With `COC(=O)Nc1ccc2c(c1)N(C(=O)CCN(C)C)c1ccccc1CC2.Cl` the figure was 15.3%.
As for `COc1ccc(OC)c(NC(=O)C2CCCN(S(=O)(=O)c3cccc4nsnc34)C2)c1` (centres unmarked), the “hERG current change (%, negative = inhibition) at 1uM” value is given as 5.54%.
As for `O=C(CN1C(=O)/C(=C/c2ccc(F)cc2)SC1=S)NC1C=CS(=O)(=O)C1` (centres unmarked), the figure is 26.4%; as for `CN(c1ccccc1)S(=O)(=O)c1cccc(Cl)c1Cl`, 7.11%; as for `CC(Oc1ccccc1)C(=O)N=C1SC2CS(=O)(=O)CC2N1CCc1ccccc1` (centres unmarked), 8.75%.
For the molecule `Cc1ccc(S(=O)(=O)N(Cc2ccccc2)c2ccccc2C(=O)N2CCCCC2)cc1`, the “hERG current change (%, negative = inhibition) at 1uM” value was -1.52%.
As for `CC(C)CCNC(=O)C(c1ccc(O)cc1)N(C(=O)C1COc2ccccc2O1)c1cccc(O)c1` (centres unmarked), the figure is 9.7%; as for `O=C(Nc1ccccc1)c1nc2ccccc2s1`, 8.28%.
For the molecule `COC(=O)c1sccc1NC(=O)C1CC2CCC1C2` (centres unmarked), the “hERG current change (%, negative = inhibition) at 1uM” value was 20.7%.
As for `O=C(Nc1ccc(F)cc1F)N1CCCCCC1`, the figure is 12.6%.
For `O=C(/C=C/c1ccc(O)cc1)c1ccc(O)cc1O`, the “hERG current change (%, negative = inhibition) at 1uM” value is 12.5%.
For the molecule `COc1ccc(NC(=O)C2CCC(=O)N2)cc1` (centres unmarked), the “hERG current change (%, negative = inhibition) at 1uM” value came out at 3.06%.
With `Nc1ccc(S(=O)(=O)NC(Cc2ccccc2)C(=O)O)cc1` (centres unmarked) the figure was 14.7%; with `Cc1sc(=NC(=O)c2ccco2)n(C)c1-c1ccccc1`, 5.23%.
Consider `Cc1cccc(NC(=S)NCCc2ccccc2)n1`, for which the “hERG current change (%, negative = inhibition) at 1uM” value turned out to be 7.34%.
As for `COC(=O)c1cc(OC)c(OC)cc1NC(=O)c1c(-c2ccccc2Cl)noc1C`, the figure is 1.26%; as for `COc1ccc(CNCCCSc2ncccn2)cc1OC.Cl`, 13.6%.
As for `Clc1ccc2nc(-c3ccccc3)c(CN3CCOCC3)n2c1`, the figure is 6.55%; as for `S=C(NCCc1ccccc1)Nc1cnc2ccccc2c1`, 12.5%; as for `C#CCOc1nc(OCC#C)nc(OCC#C)n1`, 14%.
As for `COc1ccc(-c2nc3ccccc3c(=O)n2CCOc2ccccc2C)cc1`, the figure is 10.6%; as for `Cc1cc(C)n(-c2nc3c(c(=O)[nH]c(=O)n3C)n2Cc2cccc(Br)c2)n1`, 6.8%.
In the case of `Nc1ccccc1C#Cc1ccc2[nH]ccc2c1`, the “hERG current change (%, negative = inhibition) at 1uM” value is 13.1%.
For the molecule `Cc1cc(C)n(C(=O)COc2ccc([N+](=O)[O-])cc2)n1`, the “hERG current change (%, negative = inhibition) at 1uM” value is 8.19%.
Regarding `COc1cc(CN2CCC(C(=O)N3CCCC(C)C3)CC2)cc(Br)c1O.O=C(O)C(=O)O` (centres unmarked), the “hERG current change (%, negative = inhibition) at 1uM” value was -3.34%.
With `CCOc1cc(/C=C2\SC(N)=NC2=O)ccc1O` the figure was 10.3%.
On to `CC(=O)Oc1ccc(C(C)=O)c2c1OCCO2`, for which the “hERG current change (%, negative = inhibition) at 1uM” value is on record as 10.3%.
With `COc1ccc2c(c1)CCc1c(C(=O)Nc3c(C)n(C)n(-c4ccccc4)c3=O)noc1-2` the figure was 11.7%; with `Cc1c(C(=O)OCC(=O)Nc2ccc(C(N)=O)cc2)cccc1[N+](=O)[O-]`, 11%; with `Cc1ccc(NC(=O)CCC(=O)NNC(=O)COc2ccc([N+](=O)[O-])cc2)c(C)c1`, 12.3%.
For the molecule `COc1ccc(CNC(=O)CN(Cc2ccc(OC)cc2)C(=O)CCC(=O)Nc2nccs2)cc1`, the “hERG current change (%, negative = inhibition) at 1uM” value came out at 10.5%.
As for `O=C(N/N=C/c1c(O)n(C2CC2)c(=S)[nH]c1=O)c1ccccc1O`, the figure is 7.97%; as for `CCCCCNC(=O)C1CC=CCC1C(=O)O` (centres unmarked), 10.1%; as for `CCOC(=O)COc1cccc2c(=O)n(CC(=O)N3CCCc4ccccc43)ccc12`, 14.4%.
With `COCCNC(=O)CN(C(=O)c1ccc(N2CCCC2)nc1)c1ccccc1` the figure was 7.3%.
Consider `CC(C)Oc1ccc(C(=O)NCc2ccco2)cc1`, for which the “hERG current change (%, negative = inhibition) at 1uM” value came out at 14.8%.
For `Cc1cc(S(=O)(=O)N2CCCC(N3CCOCC3)C2)c(C)cc1Cl` (centres unmarked), the “hERG current change (%, negative = inhibition) at 1uM” value was determined as 1.19%.
As for `Cc1nc2ccccc2cc1OCc1ccccc1`, the figure is 23.7%; as for `Cc1ccccc1NN1C(=O)C=CC1=O`, 1.59%.
In the case of `C=CCNC(=S)/N=c1\sccn1C`, the “hERG current change (%, negative = inhibition) at 1uM” value is reported as 10.9%.
As for `COc1ccc(CN(C)Cc2nc3scc(-c4ccccc4)c3c(=O)[nH]2)cc1OC`, the figure is 10.2%.
For the molecule `c1ccc2c(c1)Cn1nc(Cc3nc4c(s3)CCCC4)nc1-2`, the “hERG current change (%, negative = inhibition) at 1uM” value was 5.36%.
Regarding `COc1cc2nc(=S)n3[nH]c(CCn4c(C)nc5ccccc54)nc3c2cc1OC`, the “hERG current change (%, negative = inhibition) at 1uM” value worked out at 4.66%.
With `CCN1CCN(C(=O)Cn2c(=O)sc3ccccc32)CC1` the figure was 0.639%; with `COc1ccc2c(-c3ccccc3)cc3nnnn3c2c1`, 9.5%; with `CCCCSCCCNC(=O)Nc1ccc(C)c(C)c1`, 7.24%.
As for `Cc1ccc2nc(SCC(=O)Nc3cccc(Cl)c3)nc(=O)n2c1`, the figure is 9.15%; as for `O=C1CN(C(=O)c2cnccn2)c2ccccc2N1`, 17.4%.
As for `O=C(c1cc2cc3ccc(Cl)cc3nc2o1)N1CCC2(CC1)OCCO2`, the figure is -0.222%.
As for `NC(=O)c1ccc(-n2nc(C(F)(F)F)c3c2CCCC3)cc1`, the “hERG current change (%, negative = inhibition) at 1uM” value was -1.73%.
With `O=C(CN1C(=O)NC2(CCCC2)C1=O)N1CCN(S(=O)(=O)c2ccccc2F)CC1` the figure was 9.86%; with `Cl.N=C(N)SCc1cccc2ccccc12`, 2.46%; with `Cc1cccc(-c2nc(CSCC(=O)NCc3cccs3)c(C)o2)c1`, 12.3%.
With `O=C(NCc1ccccc1)Nc1cccn(Cc2ccc(Cl)cc2)c1=O` the figure was 15.2%; with `O=[N+]([O-])c1cc(-c2nnc(N3CCOCC3)c3ccccc23)ccc1N1CCOCC1`, -8.61%.
With `COc1ccc(-c2noc(CSc3nc(-c4ccccc4)cc(=O)[nH]3)n2)cc1OC` the figure was 5.68%.
Consider `Cc1ccc2[nH]c3c(NCCCN4CCCC4=O)ncnc3c2c1`, for which the “hERG current change (%, negative = inhibition) at 1uM” value came out at 5.27%.
For `C[n+]1cccc(C(=O)NNC(=O)C23CC4CC(CC(C4)C2)C3)c1.[I-]`, the “hERG current change (%, negative = inhibition) at 1uM” value stood at 17.3%.
Take `CC[C@@H](C(=O)[C@@H](C)[C@@H](O)[C@H](C)CCc1ccc(C)c(O)c1C(=O)[O-])[C@H]1O[C@](CC)([C@H]2CC[C@](O)(CC)[C@H](C)O2)C[C@@H]1C.[Na+]`: the “hERG current change (%, negative = inhibition) at 1uM” value amounted to 2.26%.
On to `O=C(COC(=O)C1=COCCO1)Nc1ncc(C(F)(F)F)cc1Cl`, for which the “hERG current change (%, negative = inhibition) at 1uM” value is given as 10.8%.
For `COc1cc2c(cc1OC)-c1cc(Nc3ccc4c(c3)OCCO4)nc(=O)n1CC2`, the “hERG current change (%, negative = inhibition) at 1uM” value is 1.71%.
As for `O=C(/C=C/c1ccc(F)cc1)NC(=S)NNC(=O)c1cnccn1`, the figure is 17%; as for `CCCCN=C(NNc1ccc(Br)cc1)C(=O)OCC`, -0.962%.
As for `CC(=O)N1CCOc2ccc(S(=O)(=O)N3CCC(C(=O)Nc4ccc(C)cc4C)CC3)cc21`, the figure is 17.2%; as for `Cc1ccc(-c2nnn(CC(=O)N(CCCO)C(C(=O)NC3CCCC3)c3ccc(F)cc3)n2)o1` (centres unmarked), 15.9%.
Regarding `Cc1ccnc(N2CCC(C(=O)Nc3nnc(C)s3)CC2)n1`, the “hERG current change (%, negative = inhibition) at 1uM” value was 12.9%.
On to `CCC(C)(C(=O)Nc1ccccc1C)N(C(=O)CNC(C)=O)c1ccccc1C` (centres unmarked), for which the “hERG current change (%, negative = inhibition) at 1uM” value came out at 10.7%.
As for `C(=N\Nc1nc(N2CCCCC2)nc(N2CCCCC2)n1)/c1c[nH]c2ccccc12`, the figure is 15.5%.

Values taken from PMC4336329 (PLoS ONE, 2015).
